{"source": "paper PMC12820563", "note": "The list shows a part of the results. The list includes weakly bound sequences."}
{"molecular_target": "T1, MBP-FoxP3dN (UniProt Q99JB6)", "T1 sequence": "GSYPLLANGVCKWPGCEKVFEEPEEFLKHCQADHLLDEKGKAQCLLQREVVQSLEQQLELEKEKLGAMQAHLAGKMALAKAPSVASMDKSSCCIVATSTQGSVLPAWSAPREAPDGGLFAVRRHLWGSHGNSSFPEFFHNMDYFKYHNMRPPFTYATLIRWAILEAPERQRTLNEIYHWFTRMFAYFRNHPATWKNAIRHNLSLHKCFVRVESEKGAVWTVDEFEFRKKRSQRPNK", "assay": "PD-seq (MBP pull-down with sequencing)", "conditions": "20 mM Tris-HCl pH 7.5, 100 mM NaCl, 1.5 mM MgCl2, 0.4 uM protein, 0.1 uM dsDNA library, 30 min, room temperature, amylose pull-down; high values mean tight binding; double strand, one strand shown"}
{"sequence": "GATGATTGTTCTCCCAGCTGATGAATTTATATCATCGAGTAAACAAATTTTCCTAATCTTTCTGTTCAAGCGCCATCTAC", "binding signal (RPM ratio (pull-down/input))": 1.52}
{"sequence": "GATGATTGTTCTCCCAGCTGATGAATTTTTATGATCGAGTAAACAAATTTTCCTAATCTTTCTGTTCAAGCGCCATCTAC", "binding signal (RPM ratio (pull-down/input))": 0.344}
{"sequence": "GATGATTGTTCTCCCAGCTGATGAATTCGAATTGTCGAGTAAACAAATTTTCCTAATCTTTCTGTTCAAGCGCCATCTAC", "binding signal (RPM ratio (pull-down/input))": 0.81}
{"sequence": "GATGATTGTTCTCCCAGCTGATGAATTTGAGACGTCGAGTAAACAAATTTTCCTAATCTTTCTGTTCAAGCGCCATCTAC", "binding signal (RPM ratio (pull-down/input))": 0.312}
{"sequence": "GATGATTGTTCTCCCAGCTGATGAATTGCACAAATCGAGTAAACAAATTTTCCTAATCTTTCTGTTCAAGCGCCATCTAC", "binding signal (RPM ratio (pull-down/input))": 0.672}
{"sequence": "GATGATTGTTCTCCCAGCTGATGAATTCCGAGAGTCGAGTAAACAAATTTTCCTAATCTTTCTGTTCAAGCGCCATCTAC", "binding signal (RPM ratio (pull-down/input))": 0.249}
{"sequence": "GATGATTGTTCTCCCAGCTGATGAATTGTTGGAATCGAGTAAACAAATTTTCCTAATCTTTCTGTTCAAGCGCCATCTAC", "binding signal (RPM ratio (pull-down/input))": 0.443}
{"sequence": "GATGATTGTTCTCCCAGCTGATGAATTCATGACCTCGAGTAAACAAATTTTCCTAATCTTTCTGTTCAAGCGCCATCTAC", "binding signal (RPM ratio (pull-down/input))": 0.359}
{"sequence": "GATGATTGTTCTCCCAGCTGATGAATTGCCGCGCTCGAGTAAACAAATTTTCCTAATCTTTCTGTTCAAGCGCCATCTAC", "binding signal (RPM ratio (pull-down/input))": 0.682}
{"sequence": "GATGATTGTTCTCCCAGCTGATGAATTGGACTCTTCGAGTAAACAAATTTTCCTAATCTTTCTGTTCAAGCGCCATCTAC", "binding signal (RPM ratio (pull-down/input))": 0.423}
{"sequence": "GATGATTGTTCTCCCAGCTGATGAATTGAAAGATTCGAGTAAACAAATTTTCCTAATCTTTCTGTTCAAGCGCCATCTAC", "binding signal (RPM ratio (pull-down/input))": 0.249}
{"sequence": "GATGATTGTTCTCCCAGCTGATGAATTAGACAGATCGAGTAAACAAATTTTCCTAATCTTTCTGTTCAAGCGCCATCTAC", "binding signal (RPM ratio (pull-down/input))": 0.246}
{"sequence": "GATGATTGTTCTCCCAGCTGATGAATTTTAATACTCGAGTAAACAAATTTTCCTAATCTTTCTGTTCAAGCGCCATCTAC", "binding signal (RPM ratio (pull-down/input))": 0.503}
{"sequence": "GATGATTGTTCTCCCAGCTGATGAATTCAGGGCGTCGAGTAAACAAATTTTCCTAATCTTTCTGTTCAAGCGCCATCTAC", "binding signal (RPM ratio (pull-down/input))": 0.456}
{"sequence": "GATGATTGTTCTCCCAGCTGATGAATTGCTTGACTCGAGTAAACAAATTTTCCTAATCTTTCTGTTCAAGCGCCATCTAC", "binding signal (RPM ratio (pull-down/input))": 0.629}
{"sequence": "GATGATTGTTCTCCCAGCTGATGAATTATCCCATTCGAGTAAACAAATTTTCCTAATCTTTCTGTTCAAGCGCCATCTAC", "binding signal (RPM ratio (pull-down/input))": 0.337}
{"sequence": "GATGATTGTTCTCCCAGCTGATGAATTACCCCCATCGAGTAAACAAATTTTCCTAATCTTTCTGTTCAAGCGCCATCTAC", "binding signal (RPM ratio (pull-down/input))": 0.332}
{"sequence": "GATGATTGTTCTCCCAGCTGATGAATTTGCTGTTTCGAGTAAACAAATTTTCCTAATCTTTCTGTTCAAGCGCCATCTAC", "binding signal (RPM ratio (pull-down/input))": 6.28}
